Where “and” joins values, the source holds several entries; their conditions need not be identical. Equal values may be shown once. Among all 270,000 compounds or so, about 620 (0.23%) were called active. The shares of active, inactive and inconclusive entries below differ from those in the screen. Calls come from the whole dose curve; as a rule, active = well fitted inhibition curve with a large enough effect in the polarisation, with a control signal flat (not every such curve was filed as active); inconclusive = small, poorly fitted or top-dose-only effect, or effect the other way, or a change in a side signal; inactive = no such curve, though single readings can be large or run the other way; the % refers to the polarisation. Potencies beside an inconclusive call are fits to weak or partial responses and may not hold up. A note “side channel” means that the fit belongs to a control or component signal, not to the main read-out.
What follows are compounds tested against Menin (Homo sapiens) (UniProt O00255) (assay: qHTS Assay for Inhibitors Targeting the Menin-MLL Interaction in MLL Related Leukemias: Competition With Texas Red Labeled MLL-derived Mutant Peptide). Conditions: fluorescence polarization; series mostly up to 61.6 µM.
UniProt O00255, sequence (O00255 whole entry, looked up): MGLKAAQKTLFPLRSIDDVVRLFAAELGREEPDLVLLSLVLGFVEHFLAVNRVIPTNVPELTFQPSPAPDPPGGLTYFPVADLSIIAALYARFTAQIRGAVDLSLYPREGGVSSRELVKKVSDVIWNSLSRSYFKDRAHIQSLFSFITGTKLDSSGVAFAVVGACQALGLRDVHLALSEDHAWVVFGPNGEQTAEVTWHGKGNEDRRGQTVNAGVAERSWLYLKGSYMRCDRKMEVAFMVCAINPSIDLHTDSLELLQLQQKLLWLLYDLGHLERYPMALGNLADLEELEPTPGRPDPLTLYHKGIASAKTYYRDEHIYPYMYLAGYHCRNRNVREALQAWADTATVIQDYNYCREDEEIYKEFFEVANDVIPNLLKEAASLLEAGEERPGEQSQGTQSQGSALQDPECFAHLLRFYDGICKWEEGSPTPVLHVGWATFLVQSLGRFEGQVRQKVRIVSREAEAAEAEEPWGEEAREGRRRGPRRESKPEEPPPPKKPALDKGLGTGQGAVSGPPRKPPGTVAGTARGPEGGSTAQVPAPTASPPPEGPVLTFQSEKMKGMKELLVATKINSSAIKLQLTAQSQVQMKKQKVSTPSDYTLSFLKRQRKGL
`CSc1cccc(NC(=O)C2CCN(S(=O)(=O)c3ccc4c(c3)NC(=O)CO4)CC2)c1` was tested, and the Potency was inconclusive: 20 µM [quencher, side channel, partial curve]. `CCCn1c(=N)n(CC(=O)c2ccc([N+](=O)[O-])cc2)c2ccccc21` was tested, and the Potency was inconclusive: 17.8 µM [quencher, side channel, partial curve]. For `O=c1cc(-c2ccccc2)oc2cc(O)c(O)c(O)c12`, the Potency was inconclusive: 12.6 µM [quencher, side channel, partial curve] and inconclusive: 25.1 µM [quencher, side channel, partial curve] and inconclusive: 35.5 µM [quencher, side channel, partial curve]. With `Cc1ccc(NS(=O)(=O)c2cccc(C(=O)NCCc3c[nH]c4ccccc34)c2)c(C)c1` the Potency was inconclusive: 14.1 µM [quencher, side channel, partial curve]. For `Nc1nc(N2CCN(Cc3ccccc3)CC2)n[nH]1`, the Potency was “inactive”. For `C/C(=N\NC(N)=O)c1ccccc1`, the Potency was “inactive”. `N/C(=N\OC(=O)c1cc(Cl)ccc1Cl)c1cccnc1` was tested, and the Potency was inconclusive: 25.1 µM [fluorescent, side channel, partial curve]. With `O=C(Nc1sc2c(c1-c1nc3ccccc3[nH]1)CCCC2)C1CCCC1` the Potency was inconclusive: 12.6 µM [quencher, side channel, partial curve]. For `COc1ccc(CN(C)C(C)C(=O)NC2CCCc3ccccc32)cc1` (configuration not stated), the Potency was inconclusive: 7.94 µM [fluorescent, side channel, full curve]. `O=C1CSC(=S)N1/N=C/c1ccc(C(F)(F)F)cc1` was tested, and the Potency was inconclusive: 5.62 µM [quencher, side channel, partial curve]. For `Cc1cccc(NC(=O)/C=C/c2ccc([N+](=O)[O-])s2)c1`, the Potency was “inactive”. `Cn1cc(C(=O)Nc2ccc(Cl)cc2)c(C(F)(F)F)n1` was tested, and the Potency was “inactive”. `CCCCCCCCCCCC` was tested, and the Potency was “inactive”. With `CC(C)=CC(=O)OCC(=O)Nc1ncc(Cl)c(C)c1Cl` the Potency was inconclusive: 11.2 µM [inhibitor, single point]. In the case of `Cc1cccc(NC(=O)c2ccccc2NC(=O)Cc2ccccc2)c1C`, the Potency is reported as inconclusive: 0.708 µM [inhibitor, full curve, poor fit]. In the case of `CCN(CC)S(=O)(=O)c1ccc(OC)c(NC(=O)c2cc3c(=O)n4ccccc4nc3s2)c1`, the Potency is reported as inconclusive: 8.91 µM [quencher, side channel, full curve, poor fit]. With `CCOC(=O)C(C)Sc1nnc(CNC(=O)c2ccc(OC)cc2)n1C1CCCCC1` (configuration not stated) the Potency was inconclusive: 28.2 µM [inhibitor, single point].

— PubChem BioAssay AID1768 (National Center for Advancing Translational Sciences (NCATS), 2009)
Potency is the fitted concentration of half-maximal effect; tags give direction and shape of the fitted curve or compound fluorescence and quenching.
